Experimental data from the supplement of paper PMC10338343.
± gives the standard deviation. The list shows a part of the results, in another mix than the full data.

System: MIWI (PIWIL1) piRISC loaded with L1MC piRNA (30 nt)
Test: pre-steady-state target cleavage rate (min^-1); MIWI and MILI are mouse PIWI proteins and EfPiwi is from a freshwater sponge; tags in brackets are library labels; higher = faster piRNA-guided slicing of the target
Details: guide: L1MC piRNA 5'p-UAACUAAAUACUAUGCAAGCUGUAGGUCCU
How it was run: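 In Cleave-'n-Seq, a transcribed, DNA-blocked target RNA library (0.1 nM) was combined with 1 nM active affinity-purified piRISC bearing one synthetic guide, with or without 500 nM GTSF1 partner protein. Reactions ran in HEPES–potassium acetate buffer at 33 °C for 0–8 or 0–960 min. Uncleaved targets were sequenced and normalised to depth and to weakly complementary targets, three trials were pooled, and k3 was capped at 0.0001 min^-1. The pre-steady-state cleavage rate was obtained by fitting a burst-and-steady-state model.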

[1] = auxiliary factor: 500 nM mouse GTSF1
[2] = auxiliary factor: none (no GTSF1)

| Sequence | pre-steady-state target cleavage rate [1] | pre-steady-state target cleavage rate [2] |
| --- | --- | --- |
| UCCUGGUACAGCUUGCAUAGUAUUUUGAAA | 0.313 ± 0.069 | 0.00427 ± 0.0021 |
| AGGACGUACAGCUUGCAUAGUUUUUAGUUA | 0.344 ± 0.02 | 0.037 ± 0.0092 |
| UCCUCCUUCAGCAUGCAUAGUAUUUAGUUA | 1.01 ± 0.043 | 0.0155 ± 0.0034 |
| AGGACCUACAGGUUGCAUAGUAUUUUGUUA | 0.842 ± 0.083 | 0.0435 ± 0.0083 |
| UCGACCUACAGCUUGCAAGUAUUUAGUUA | 0.427 ± 0.038 | 0.00682 ± 0.0023 |
| UCCUGGAUGUGCUUGCAUUGUAUUUAGAUA | 0.0181 ± 0.0038 | 0.0063 ± 0.0025 |
| UGGAGCUACAGGUUGCAUAGUAUUUAGUUA | 0.765 ± 0.044 | 0.0388 ± 0.0065 |
| AGGACCUACUGGUUGCAUAGUAUUUAGUUA | 0.868 ± 0.03 | 0.059 ± 0.0095 |
| UCGACUCUACAGCUUGCAUAGUAUUUAGUUA | 1.48 ± 0.06 | 0.0579 ± 0.0096 |
| UCCUGCUACAGGAUGCAUAGUAUUUAGUAA | 1.05 ± 0.18 | 0.00358 ± 0.0017 |
| UGGACCUAGUGCUUGCAUAGUAUUUACAAA | 0.0157 ± 0.0028 | 0.00317 ± 0.0027 |
| UCCUGGAACAGCUUGCAUAGCAUUUAGUUA | 0.328 ± 0.031 | 0.0329 ± 0.0074 |
| AGGACCUACAGCUUGCAUACUUUUUAGUUA | 0.0575 ± 0.011 | 0.00783 ± 0.0023 |
| UGGACCUACAGCUUGUCAUAGUAUUUAGUUA | 0.706 ± 0.1 | 0.00373 ± 0.0033 |
| UCCUGCUACAGCUUGCAUAGUAUUGAGUUA | 0.31 ± 0.046 | 0.0253 ± 0.0049 |
| UCCUGCUACAGCUAGCAUAGUAUUUAGUUA | 1.26 ± 0.094 | 0.0139 ± 0.0032 |
| UCCUGGAACAGCAUGCAUAGUAUUUAGAUA | 0.505 ± 0.048 | 0.00807 ± 0.0036 |
| UCCACCUAGAGCUUGCAAAGUAUUUAGUUA | 0.447 ± 0.037 | 0.0191 ± 0.0035 |
| UCCUGCUACAGCUUGCUUAGUAUUUAGUAA | 0.279 ± 0.023 | 0.0083 ± 0.002 |
| UCCUGGAUCAGCUUGCAUAGUAUUUACUUA | 0.224 ± 0.015 | 0.0269 ± 0.0071 |
